The whole screen tested about 420,000 compounds, of which about 50,000 (12%) were called active. The shares of active, inactive and inconclusive entries below differ from those in the screen. Calls follow the shape of the dose curve; as a rule, active = well fitted inhibition curve with a large enough effect; inconclusive = small, poorly fitted or top-dose-only effect; inactive = flat fitted curve, though single readings scatter. Potencies of inconclusive entries are left out as doubtful fits.
Test: qHTS for Inhibitors of human tyrosyl-DNA phosphodiesterase 1 (TDP1): qHTS in cells in presence of CPT; also: nearly all actives have a fitted effect of over 55% in size
Conditions: chicken DT40 Tdp1-/-;hTDP1 cells + 20 nM CPT, ATP luminescence, 48 h; activity change, negative = growth inhibition: at 46.2 µM (top of the series) unless noted
Method in brief: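 Cell growth measured by CellTiter-Glo luminescence after a minimum 48 h, 37 C compound exposure with 20 nM CPT in Tdp1-knockout DT40 cells stably expressing hTDP1, seeded 400/well; qHTS titration format.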
With `CC(C)C(NC(=O)c1ccco1)C(=O)OCc1cc([N+](=O)[O-])cc2c1OCOC2` (stereo not drawn) the Potency was inconclusive [inhibitor, single point]. In the case of `O=C(Cc1cccs1)Nc1cccc(-c2nnc(-c3ccco3)o2)c1`, the Potency is reported as active: 16.4 µM. With `CCn1c(CSCc2ccc(C)cc2)n[nH]c1=S` the “activity change, negative = growth inhibition” value was inactive: -0.416%. In the case of `CCOc1ccccc1CNC(=O)C(C)n1nc(C)c2c(C)n(-c3ccccc3)nc2c1=O` (stereo not drawn), the Potency is reported as active: 23.1 µM. In the case of `CCSc1nc2ccc(C)cc2cc1C#N`, the “activity change, negative = growth inhibition” value is reported as inactive: -0.0565%. For `c1cn(-c2cc(-c3ccc4c(c3)OCO4)ncn2)cn1`, the Potency was inconclusive [inhibitor, single point]. For `Cc1cc(Cl)ccc1C(=O)C1CCCN(C(=O)c2ccc3c(c2)OCO3)C1` (stereo not drawn), the Potency was active: 10.3 µM. For `COc1ccc(-n2nc3c(c2NC(=O)C(C)Oc2ccccc2)CS(=O)(=O)C3)cc1` (stereo not drawn), the Potency was inconclusive [inhibitor, single point]. For `CC(=O)c1ccc(OCCNS(=O)(=O)c2ccc(-n3cnnn3)c(C)c2)cc1`, the Potency was active: 13 µM. In the case of `O=C(Nc1ccccc1)/C(=C/c1cccnc1)NC(=O)c1ccccc1`, the “activity change, negative = growth inhibition” value is reported as inactive: 16.3%. For `COC(=O)c1ccc(S(=O)(=O)N2C3CCC2CC(NC(=O)C2CC2)C3)cc1` (stereo not drawn), the activity change, negative = growth inhibition was inconclusive: -31.7% [inhibitor]. With `Cc1cc(C)c(S(=O)(=O)Nc2c(C)[nH]c(=O)[nH]c2=O)c(C)c1` the Potency was active: 16.4 µM. In the case of `COc1cccc(-c2nc(NCCN3CCOCC3)c3ccccc3n2)c1O`, the Potency is reported as active: 14.6 µM. With `COC(=O)Cc1sc(-c2ccccn2)nc1-c1ccccc1` the Potency was inconclusive [inhibitor, single point]. In the case of `O=C(CCN1C(=O)c2ccccc2C1=O)NCCCn1ccnc1`, the “activity change, negative = growth inhibition” value is reported as inactive: 8.16%. With `COc1ccc(NC(=O)CN(C)C(=O)CC2CCCC2)cc1` the “activity change, negative = growth inhibition” value was inactive: -1.06%. In the case of `COc1cccc(C(c2nnnn2Cc2ccccc2)N2CCN(C(=O)c3ccco3)CC2)c1OC` (stereo not drawn), the Potency is reported as inconclusive [inhibitor, single point]. In the case of `COc1cc2c(cc1NC(=S)Nc1cccc(C(F)(F)F)c1)oc1ccccc12`, the Potency is reported as active: 23.1 µM. In the case of `O=[N+]([O-])c1ccc(S(=O)(=O)NCc2nc3cccnc3n2Cc2ccccc2Cl)cc1`, the Potency is reported as active: 14.6 µM. In the case of `CCOc1ccccc1NC(=O)C(c1ccccc1)N1CCN(CC(=O)N2CCOCC2)CC1` (stereo not drawn), the Potency is reported as active: 23.1 µM. With `CCOC(=O)C1CCN(c2c(Nc3cc(C)cc(C)c3)c(=O)c2=O)CC1` the Potency was active: 14.6 µM. For `Cc1cc(C(=O)NNC(=S)Nc2cccc(C(F)(F)F)c2)nn1C`, the Potency was inconclusive [inhibitor, single point]. With `COc1ccc(N(CC(=O)NCC2CCCO2)C(=O)CCC(=O)Nc2nccs2)c(OC)c1` (stereo not drawn) the “activity change, negative = growth inhibition” value was inactive: -4.44%. With `CCC(O)c1cnc(OCc2ccccc2)nc1OCc1ccccc1` (stereo not drawn) the Potency was inconclusive [inhibitor, single point]. In the case of `Cc1ccc(F)cc1C(=O)N1CCCC1(C)C(=O)NCC(C)C` (stereo not drawn), the “activity change, negative = growth inhibition” value is reported as inactive: -0.0382%. In the case of `CCN(C(=O)COC(=O)c1ccccc1NCc1ccco1)c1c(N)n(Cc2ccccc2)c(=O)[nH]c1=O`, the Potency is reported as inconclusive [inhibitor, single point]. For `CCC(CC)C(=O)Nc1cccc(C(=O)Nc2ccc(S(=O)(=O)Nc3ccc(C)cc3)cc2)c1`, the Potency was active: 20.6 µM. In the case of `COCc1cc(C)nc2sc(C(=O)Nc3ccc(OC(F)(F)F)cc3)c(N)c12`, the “activity change, negative = growth inhibition” value is reported as inactive: -15.6%. In the case of `C=CC[C@@H](CC(=O)N[C@H](CO)Cc1ccccc1)C(=O)N[C@@H](COC(=O)[C@H](CC=C)CC(=O)OC(C)(C)C)Cc1ccccc1`, the Potency is reported as active: 20.6 µM. In the case of `Cc1ccc(S(=O)(=O)NCc2ccccc2NS(=O)(=O)c2ccc(C)cc2)cc1`, the Potency is reported as inconclusive [inhibitor, partial curve]. For `COc1cccc(C(=O)Nc2ccc(NC(=O)c3ccco3)cn2)c1`, the “activity change, negative = growth inhibition” value was inactive: -16.7%. With `O=C(NCc1ccco1)C(=O)NCC1OCCN1C(=O)c1ccc(Cl)cc1` (stereo not drawn) the “activity change, negative = growth inhibition” value was inactive: -5.25%. With `COc1ccccc1-c1cnc(C(O)c2ccc(F)cc2C)[nH]1` (stereo not drawn) the Potency was inconclusive [inhibitor, single point]. With `CCOc1cc(C(N)=O)cc(Br)c1OCc1ccccc1` the “activity change, negative = growth inhibition” value was inactive: -2.29%. For `CCOC(=O)[C@H]1[C@H]2COc3ccc(Br)cc3[C@@H]2N2C(=O)c3ccc(C)cc3NC(=O)[C@@]12C`, the Potency was inconclusive [inhibitor, single point]. In the case of `CCOC(=O)c1c(C)c(C)n2c1NC(=O)C2`, the Potency is reported as inconclusive [inhibitor, single point]. With `CC(=O)c1c(-c2ccccc2)c2cc(Cl)ccc2n(C)c1=O` the Potency was inconclusive [inhibitor, single point]. With `CCc1nn(CCCC(=O)N(C)Cc2ccccc2)c(=O)c2cc3occc3n12` the Potency was active: 16.4 µM. In the case of `O=C(Cc1ccc(Cl)cc1)NN1C(=O)c2ccccc2C1=O`, the Potency is reported as inconclusive [inhibitor, single point]. For `CC[C@]12c3[nH]c4cc(-c5ccco5)ccc4c3CCN1C(=O)[C@@H](CC(=O)NCCc1ccccn1)C[C@@H]2C(=O)N1CCN(C(=O)C2CC2)CC1`, the Potency was inconclusive [inhibitor, partial curve]. In the case of `COc1ccccc1/C=C/C(=O)NCC(=O)N/N=C/c1ccc(C(=O)O)cc1`, the “activity change, negative = growth inhibition” value is reported as inactive: -16%. In the case of `COc1ccc(-c2csc(Nc3ccc(S(N)(=O)=O)cc3)n2)cc1`, the Potency is reported as inconclusive [inhibitor, single point]. For `Cc1cc(/C=N/Nc2nc(N3CCOCC3)nc(N3CCOCC3)n2)c(C)n1-c1ccccc1`, the “activity change, negative = growth inhibition” value was inactive: -25.5%. In the case of `Cc1ccc(-c2cc(C(=O)N/N=C/c3c(C)nn(C)c3C)c3ccccc3n2)c(C)c1`, the Potency is reported as inconclusive [inhibitor, single point]. For `O=C(NC(=S)NCC1CCCO1)c1ccc(Cl)cc1Cl` (stereo not drawn), the “activity change, negative = growth inhibition” value was inactive: -2.6%. In the case of `O[C@H]1CN(Cc2cccs2)[C@@H](c2ccccc2)C[C@@H]1n1cc(C2CC2)nn1`, the “activity change, negative = growth inhibition” value is reported as inactive: -7.43%. With `Cc1c(C(=O)OCC2CCCCC2)[nH]c2c1C(=O)CC(c1ccc(F)cc1)C2` (stereo not drawn) the Potency was inconclusive [inhibitor, partial curve]. In the case of `O=C(Nc1ccnn1C1CCN(Cc2ccccc2OC(F)F)CC1)c1cccc(F)c1`, the Potency is reported as inconclusive [inhibitor, single point]. With `OC[C@H]1O[C@@H](c2nc(-c3nc(-c4ccc(F)cc4)no3)cs2)[C@H](O)[C@@H]1O` the Potency was inconclusive [inhibitor, single point]. In the case of `CCOC(=O)C1CCN(C(=O)CN2C(=O)CSc3ccc(S(=O)(=O)N4CCOCC4)cc32)CC1`, the “activity change, negative = growth inhibition” value is reported as inactive: -5.85%. For `O=C(CCCCCn1nnc2ccccc2c1=O)Nc1ccccc1F`, the “activity change, negative = growth inhibition” value was inactive: 6.44%. With `CCc1ccccc1NC(=O)CN(c1cccc(C)c1C)S(C)(=O)=O` the “activity change, negative = growth inhibition” value was inactive: 0.765%. In the case of `COc1cc2c(cc1OC)CN(C(=O)CN1C(=O)NC3(CCCCC3C)C1=O)CC2` (stereo not drawn), the Potency is reported as inconclusive [inhibitor, partial curve]. With `O=C(CSc1nncn2c1cc1occc12)Nc1ccccc1C(F)(F)F` the Potency was inconclusive [inhibitor, single point]. With `COCCNC(=O)C1CCCN(C(=O)c2ccc(C(F)(F)F)nc2C)CC1` (stereo not drawn) the “activity change, negative = growth inhibition” value was inactive: -13.2%. With `CCCN(Cc1cc2cc(OC)ccc2[nH]c1=O)C(=O)c1ccco1` the Potency was active: 29.1 µM. In the case of `N#Cc1cccc(Nc2ncnc3c2cnn3-c2cccc(Cl)c2)c1`, the Potency is reported as inconclusive [inhibitor, single point]. With `Cc1ccc(Cl)cc1-n1ncc2c(NC3CCCCC3)ncnc21` the Potency was active: 9.2 µM. With `COc1ccc(/C=N/NC(=O)c2nn(-c3ccc(C)c(C)c3)c(=O)c3ccccc23)cc1` the Potency was active: 9.2 µM. In the case of `CCOC(=O)C1=CCC(c2cc3ccccc3[nH]2)NC1` (stereo not drawn), the Potency is reported as inconclusive [inhibitor, single point]. With `O=C(Nc1cccc(-c2cnc3ccccc3n2)c1)c1ccncc1` the Potency was inconclusive [inhibitor, full curve]. For `Cc1ccc(C(C)C)c(OCCCNCc2cccnc2)c1`, the Potency was inconclusive [inhibitor, single point]. In the case of `O=C(O)CC(=O)NC12CC3CC(CC(C3)C1)C2`, the Potency is reported as “inactive”. In the case of `Nc1nc(=O)c2ccccc2s1`, the Potency is reported as inconclusive [inhibitor, single point]. With `CC(=O)c1cc(-c2ccccc2)n(CCC(=O)NC2CCCCCCC2)c1C` the Potency was inconclusive [inhibitor, full curve]. With `Nc1cc(S(=O)(=O)Nc2ccccc2Cl)ccc1N1CCOCC1` the Potency was inconclusive [inhibitor, partial curve]. With `CCOC(=O)c1c(CN2CCN(c3ccccc3)CC2)oc2ccc(O)cc12` the Potency was inconclusive [inhibitor, single point]. In the case of `CCN1C(=O)c2cccc3c(NC(=O)C(C)(C)C)ccc1c23`, the “activity change, negative = growth inhibition” value is reported as inactive: -3.15%. In the case of `CCOC(=O)c1c(C)[nH]c(CCC(=O)Nc2c(Cl)cc(OC)cc2OC)c1C`, the Potency is reported as inconclusive [inhibitor, single point]. For `CCCCC[C@H](C)N1C[C@H](COCc2ccccc2)Oc2cc(N3CC[C@H](O)C3)ccc2S1(=O)=O`, the Potency was inconclusive [inhibitor, single point]. For `Cc1ccccc1N1CC(C(=O)Nc2ccc(S(=O)(=O)N3CCCCC3)cc2)CC1=O` (stereo not drawn), the Potency was inconclusive [inhibitor, partial curve, poor fit]. For `CC(=O)Nc1ccc(S(=O)(=O)N2CCN(C(=O)Cc3ccccc3)CC2)cc1`, the Potency was active: 11.6 µM. In the case of `COc1ccc(C(CC(=O)N2CCCC(C)C2)c2c(OC)cc(OC)c3ccc(=O)oc23)cc1` (stereo not drawn), the Potency is reported as inconclusive [inhibitor, single point].

From PubChem BioAssay AID686979 (National Center for Advancing Translational Sciences (NCATS), 2013)
% is scaled to controls: 0 for no effect and ±100 for the full control effect; potency is read from the fitted curve at half-maximal effect; tags tell the direction and shape of the fitted curve.
